ChEMBL document CHEMBL4888484, “Replenishing the malaria drug discovery pipeline: Screening and hit evaluation of the MMV Hit Generation Library 1 (HGL1) against asexual blood stage Plasmodium falciparum ,using a nano luciferase reporter read-out” (2022)
Hit rate of the full screen: of about 150,000 compounds, about 540 (0.36%) showed an effect of 50% or more. This is one part of the list.

system: Plasmodium falciparum; experiment: Primary screen in NF54 nanoGlo assay, in single point, at 2uM, 72h; a lower Z score goes with more inhibition; format: functional, Erythrocyte; details: timepoint 72 hour

| SMILES | % Inhibition [%] | Z score |
| --- | --- | --- |
| CC(C)(C)OC(=O)Nc1cccc(F)c1NCC(=O)NCC1CC1 | -10 | 1.62 |
| CCn1nccc1CNc1nnc2cc(C)ccn12 | -4 | 0.3 |
| CC(C)CN=C(NCc1nc(C2CC2)no1)NC1CC1C (configuration not stated) | 13 | -1.64 |
| CC(=O)NCc1ccc(CNC(C)=O)cc1 | -9 | 1.11 |
| CCOC(=O)c1cn(C[C@H](O)c2cccc(C#N)c2)nn1 | -16 | 1.83 |
| CN(C(=O)Cn1nc2n(c1=O)CCCC2)c1ccccc1 | -7 | 0.87 |
| Cc1noc(C2CCN([C@@H](C(=O)O)c3ccsc3)CC2)n1 | -3 | 0.43 |
| COc1ccc(Cn2cnc3c4ccccc4n(Cc4ccccc4Cl)c3c2=O)cc1 | 6 | -0.64 |
| C[C@H]1CCCN(C(=O)Cn2c(=O)n(C)c3ccccc32)C1 | -20 | 1.8 |
| c1ccc2nc(N3CC[C@H]4CC[C@@H](C3)N4)cnc2c1 | 1 | -0.14 |
| CN1Cc2cc(NC(=O)[C@H]3CCCC(=O)N3)ccc2NC1=O | -3 | 0.38 |
| Cc1nonc1COc1cccc(C#N)c1 | 2 | -0.45 |
| C[C@@H](CNC1(CO)CCOCC1)c1cccc(Br)c1 | 3 | -0.26 |
| Cc1cc([C@@H]2CCCN2S(=O)(=O)Cc2ccccc2)no1 | -4 | 0.5 |
| O=C(Cn1cccn1)c1ccc(Cl)cc1 | 5 | -0.67 |
| C=CC[C@]1(CO)CCCN(CCS(C)(=O)=O)C1 | 0 | 0.05 |
| CCOc1ccc2c(n1)CCN(C(=O)c1cc(C)nn1C)C2 | -6 | 0.86 |
| Cc1cc(NCc2ccco2)nc(C)n1 | -9 | 1.14 |
| OC[C@H]1CCCN1c1ccc(C(F)(F)F)nn1 | -13 | 2.03 |

| SMILES | % Inhibition [%] | Z score |
| --- | --- | --- |
| CCOC[C@@H](O)CN(CCN(C)C)Cc1c(-c2ccccc2)noc1N1CCCCC1 | -8 | 0.98 |
| CC1(C)C(=O)N(CC2CCCCCC2)C(=O)N1CC(N)=O | -10 | 1.69 |
| Cn1ncc(NC(=O)Cn2ccc3cc(-c4cc(F)ccc4F)ccc32)n1 | 11 | -1.41 |
| CO[C@H]1[C@H](NC(=O)C(C)C)c2ccccc2C12CCN(C(=O)COc1ccc(C)cc1)CC2 | 1 | -0.09 |
| COc1cccc(-c2nc3c(s2)CN(S(=O)(=O)c2ccc(C)c(C)c2)CC3)c1 | 4 | -0.45 |
| CCCC1(NC[C@]2(O)CCCN(Cc3cc(OC)ccc3F)C2=O)CC1 | -8 | 1.04 |
| c1ccn2cc(Cn3ccnc3-c3ccncc3)nc2c1 | -1 | 0.24 |
| O=C(c1cnc2ccsc2c1)N1CC2(CCCCC2)C1 | -15 | 2.61 |
| CC(C)CC(=O)[C@H]1CCCN(C(=O)Cn2nnnc2CN2CCCC2)C1 | 1 | -0.15 |
| Cc1ccc(Oc2nc(N3CCC(C)CC3)nc3c2CN(S(=O)(=O)c2ccccc2)CC3)cc1 | 2 | -0.32 |
| Nc1ccc(CN2CCC[C@H]2COc2ccc(Cl)cc2)nn1 | -13 | 1.79 |
| Cc1nnn(CC(=O)Nc2cc(-c3ccccn3)nn2C)n1 | -5 | 0.79 |
| Fc1ccc(NCc2c[nH]c3ccccc23)cc1 | 6 | -1 |
| CC[C@H](CO)NC(=O)N[C@H](C)c1cccc(Cl)c1 | -2 | 0.31 |
| Cc1oc(-c2ccccc2)nc1CN1CCN(S(=O)(=O)c2ccc3c(c2)CCCC3)CC1 | -9 | 1.15 |
| CC(Nc1cccc(CO)c1)C1CCOC1 (configuration not stated) | -10 | 1.32 |
| CCCn1nc(C(=O)N2CCCCCC2)c2c1CC[C@H](N1CCN(CC)CC1)C2 | 9 | -1.13 |
| CN1CCO[C@@H](CNc2ncc(F)cn2)C1 | -2 | 0.33 |
| CCCc1nc(CNc2nc3c(s2)c(C)nn3C)cs1 | 7 | -1.31 |

| SMILES | % Inhibition [%] | Z score |
| --- | --- | --- |
| CCN(C(=O)c1cnn(C)c1)[C@@H](C)c1ccncc1 | -6 | 0.93 |
| CC(=O)N[C@H]1[C@H](Oc2ccccc2Cl)O[C@@H]2COC(C)(C)O[C@H]2[C@@H]1O | -3 | 0.48 |
| CN(Cc1ccccc1)C(=O)CCC1CCN(Cc2ccc3nsnc3c2)CC1 | -1 | 0.21 |
| CCC(C)Oc1cccc(NC(C)CC(=O)NC)c1 (configuration not stated) | -14 | 1.85 |
| N#C[C@@H]1COCCN1C(=O)c1ccnc(OCC(F)F)c1 | -5 | 0.62 |
| COc1ccc(CCNC(=O)c2nnn3c2CO[C@H](c2ccc(F)cc2)C3)cc1OC | 4 | -0.4 |
| c1ccc(-c2ncn(CCc3c[nH]cn3)c2-c2cccn2-c2ccccn2)cc1 | -9 | 1.7 |
| CCCN1C[C@@H]2CC[C@H]1CN(Cc1ccc(C)o1)C2 | -9 | 1.61 |
| Cc1cc(F)ccc1[C@@H]1CCCN1C(=O)Nc1ncnn1C | -12 | 1.88 |
| O=C(c1cnccn1)N1C[C@H]2CC[C@@H](C1)N(Cc1ccc3ccccc3n1)C2 | -3 | 0.48 |
| O=C(NCCc1ccccn1)[C@H]1CCCN(c2nnc3ccc(C(F)(F)F)cn23)C1 | -20 | 3.38 |
| CCC(O)CN(CC)C(C)c1cccc(O)c1 (configuration not stated) | -8 | 1.01 |
| CC[C@](C)(O)CNC(=O)c1nccnc1N | -7 | 0.85 |
| CC[C@H]1CCCN(c2ncc(Br)cc2CO)C1 | 0 | -0.05 |
| CO[C@@H]1CO[C@H]2[C@@H]1OC[C@@H]2NCc1ccc(N(C)C)cc1 | 31 | -3.51 |
| CC(C)c1ccc(-n2nc(C(=O)NCc3ccc4c(c3)OCO4)c(=O)n(Cc3ccccc3)c2=O)cc1 | -12 | 1.85 |
| CCCCNC(=O)c1ccc(-c2cn[nH]c2)o1 | -1 | 0.15 |
| Cc1cccc(C)c1N[C@@H](C)C(=O)N1CCC2(CC1)CN(C)CCN2C | -8 | 1.08 |
